From PMC4336329 (PLoS ONE, 2015)
Hit rate of the full screen: of about 310,000 compounds, about 14,000 (4.5%) showed an effect of 50% or more. The effect is printed as a negative number. Some of the results follow.

The compounds below were run against human ether-à-go-go-related gene (hERG) potassium channel (human, UniProt Q12809) (assay: primary screen, population patch clamp on CHO cells stably expressing hERG).
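Note: peak tail current of the secondary pulse compared with the same well before compound.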

Sequence of human ether-à-go-go-related gene (hERG) potassium channel (Q12809 whole entry, looked up): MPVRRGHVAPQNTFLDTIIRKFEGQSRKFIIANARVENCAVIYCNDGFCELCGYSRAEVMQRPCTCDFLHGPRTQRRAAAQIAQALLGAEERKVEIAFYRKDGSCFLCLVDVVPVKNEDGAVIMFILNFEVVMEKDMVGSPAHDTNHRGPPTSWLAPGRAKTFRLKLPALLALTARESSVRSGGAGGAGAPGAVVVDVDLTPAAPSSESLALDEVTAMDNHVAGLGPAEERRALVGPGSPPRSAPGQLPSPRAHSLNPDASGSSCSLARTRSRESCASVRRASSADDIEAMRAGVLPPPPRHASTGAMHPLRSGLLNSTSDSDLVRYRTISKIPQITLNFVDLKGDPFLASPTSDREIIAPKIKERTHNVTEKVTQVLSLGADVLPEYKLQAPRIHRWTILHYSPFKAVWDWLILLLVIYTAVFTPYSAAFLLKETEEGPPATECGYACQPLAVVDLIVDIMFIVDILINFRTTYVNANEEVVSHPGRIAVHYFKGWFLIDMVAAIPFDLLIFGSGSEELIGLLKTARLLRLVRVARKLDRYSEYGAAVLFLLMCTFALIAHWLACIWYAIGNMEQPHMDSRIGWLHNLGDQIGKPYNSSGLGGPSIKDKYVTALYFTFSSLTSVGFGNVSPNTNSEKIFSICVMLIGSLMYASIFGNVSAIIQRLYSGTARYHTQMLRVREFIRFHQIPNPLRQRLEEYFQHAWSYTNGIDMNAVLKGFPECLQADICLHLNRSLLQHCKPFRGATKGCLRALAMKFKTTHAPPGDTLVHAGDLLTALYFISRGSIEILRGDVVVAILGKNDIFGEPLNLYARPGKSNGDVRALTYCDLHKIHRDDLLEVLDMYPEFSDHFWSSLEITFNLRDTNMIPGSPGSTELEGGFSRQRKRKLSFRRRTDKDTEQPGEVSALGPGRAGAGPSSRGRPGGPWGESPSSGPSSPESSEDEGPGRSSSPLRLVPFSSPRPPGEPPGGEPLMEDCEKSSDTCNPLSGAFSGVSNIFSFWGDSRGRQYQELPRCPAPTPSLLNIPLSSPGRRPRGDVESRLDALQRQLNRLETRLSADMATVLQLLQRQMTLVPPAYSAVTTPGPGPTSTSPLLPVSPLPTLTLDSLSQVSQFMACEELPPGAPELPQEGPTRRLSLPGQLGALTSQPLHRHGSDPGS

| Compound | hERG current change (%, negative = inhibition) at 10uM [%] |
| --- | --- |
| Cc1cccc(-c2nnc(NC(=O)c3ccc(Cl)cc3)o2)c1 | 1.54 |
| CCOc1ccc(/C(O)=C2/C(=O)C(=O)N(c3ncccn3)C2c2ccccc2)cc1 (centres unmarked) | -4.75 |
| O=C(O)CC/C(=N/NC(=O)c1cccs1)c1ccccc1 | 6.16 |
| CCc1ccc(NC(=O)C(NS(=O)(=O)c2cccc3nsnc23)c2ccccc2)cc1 (centres unmarked) | -28.6 |
| O=C1NN(c2ccccc2)C(=O)/C1=C\c1cccn1-c1ccc(Cl)c([N+](=O)[O-])c1 | 4.64 |
| Cc1ccc(-n2c(C)cc(/C=C3/C(=O)NC(=O)N(C)C3=O)c2C)cc1 | 15.2 |
| O=S(=O)(c1ccc(Cl)cc1)c1cnc(-c2cccnc2)nc1-c1ccccc1 | 0.222 |
| O=C(Nc1nccs1)C1(c2ccc(Cl)cc2)CC1 | -12.7 |
| Cc1cc(NC(=O)CSc2nccn2C)n(-c2ccccc2)n1 | 5.86 |
| CN(C)S(=O)(=O)c1ccc(C(=O)NCC2(N3CCCCC3)CCCCC2)cc1 | -1.46 |
| O=C1c2ccccc2C(=O)N1CCCON1C(=O)c2ccccc2C1=O | -15.6 |
| CC(C)CC(=O)NC1(C(F)(F)F)C(=O)Nc2c1c(=O)n(C)c(=O)n2C (centres unmarked) | 10.5 |
| Cc1cccc(CN2C(=O)c3ccccc3Sc3ccc(C(=O)NCCCN4CCOCC4)cc32)c1 | -9.29 |
| Cc1nc(NC(=O)c2ccc(F)cc2)nc2cc3c(cc12)OCO3 | 9.93 |
| Cc1cc(C(=O)N2CCN(c3ccccn3)CC2)c(C)o1 | -7.39 |
| O=[N+]([O-])c1cc(S(=O)(=O)c2ccc([O-])c([N+](=O)[O-])c2)ccc1[O-].[Na+] | 17.4 |
| Cc1nc(-c2noc(-c3ccccc3Cl)n2)c(C(F)(F)F)o1 | 21.2 |
| O=C(c1cccc([N+](=O)[O-])c1)N1CCCC(C(=O)N2CCc3ccccc3C2)C1 (centres unmarked) | -31 |
| CC(C)C(NC(=O)CCNC(=O)c1ccccc1Cl)c1nc2ccccc2[nH]1 (centres unmarked) | -9.36 |
| Cc1cccc(-c2nn(-c3ccccc3)cc2C(=O)Nc2cccc(S(=O)(=O)NC3=NCCC3)c2)c1 | 3.74 |
| O=C(CSc1ccc2ccccc2c1)Nn1cnnc1 | 16.7 |
| CC1CCCC(C)N1NC(=O)c1cccc(S(=O)(=O)N2CCc3ccccc32)c1 (centres unmarked) | -2.22 |
| CCCC(=O)NC(=S)Nc1ccccc1C(F)(F)F | 13.2 |
